Results reported in PubChem BioAssay (Tox21).
Several values for one entry are separate records, joined by “and”; a condition that tells them apart may be missing. Equal values may be shown once. Inconclusive results, whose numbers are uncertain, are shown with a selection of clear calls. A potency beside an inconclusive call is a rough fit, not a confirmed value. Activity calls are given as the source filed them. Unless noted, the call rests on the fitted dose curve; in most records, active means well fitted curve in the direction sought with a large enough effect in the repeat runs; inconclusive means weak or mixed curves; inactive means no such curve, though single readings can be large; an effect the other way counts as inactive or inconclusive.

Assays:
[1] = molecular target: Luciferin 4-monooxygenase (Photinus pyralis) (UniProt P08659); assay: qHTS assay to identify small molecule inhibitors of firefly luciferase (AID 1224835); further: nearly all actives have a fitted effect of over 25% in size
UniProt P08659, sequence (P08659 whole entry, looked up): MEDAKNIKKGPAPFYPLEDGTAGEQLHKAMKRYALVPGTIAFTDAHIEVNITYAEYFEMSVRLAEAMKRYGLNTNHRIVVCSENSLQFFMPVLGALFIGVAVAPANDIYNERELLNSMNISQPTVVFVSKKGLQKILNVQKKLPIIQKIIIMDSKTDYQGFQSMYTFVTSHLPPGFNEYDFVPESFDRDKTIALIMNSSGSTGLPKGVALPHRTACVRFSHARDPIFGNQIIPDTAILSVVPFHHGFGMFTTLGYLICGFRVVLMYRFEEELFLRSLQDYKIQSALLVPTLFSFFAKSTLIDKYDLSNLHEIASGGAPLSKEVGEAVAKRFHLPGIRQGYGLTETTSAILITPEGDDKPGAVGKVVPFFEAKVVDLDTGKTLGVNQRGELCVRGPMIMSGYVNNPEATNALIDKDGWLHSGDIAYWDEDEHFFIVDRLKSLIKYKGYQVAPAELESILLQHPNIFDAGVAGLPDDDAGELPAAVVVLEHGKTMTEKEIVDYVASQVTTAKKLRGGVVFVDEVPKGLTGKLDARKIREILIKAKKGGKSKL
In short: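 Quantitative HTS format; KM concentrations of both substrates. Purified P. pyralis FLuc activity quantified from luminescence images.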

[2] = molecular target: Nuclear receptor subfamily 1 group I member 3 (Homo sapiens) (UniProt Q14994); assay: qHTS assay to identify small molecule agonists of the constitutive androstane receptor (CAR) signaling pathway (AID 1224839); further: nearly all actives have a fitted effect of over 15% in size;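 on activation: HepG2 cells stably carrying human CAR and a CYP2B6 luciferase reporter; on the % scale 0 is the no-effect control and ±100 the full control effect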
UniProt Q14994, sequence (Q14994 whole entry, looked up): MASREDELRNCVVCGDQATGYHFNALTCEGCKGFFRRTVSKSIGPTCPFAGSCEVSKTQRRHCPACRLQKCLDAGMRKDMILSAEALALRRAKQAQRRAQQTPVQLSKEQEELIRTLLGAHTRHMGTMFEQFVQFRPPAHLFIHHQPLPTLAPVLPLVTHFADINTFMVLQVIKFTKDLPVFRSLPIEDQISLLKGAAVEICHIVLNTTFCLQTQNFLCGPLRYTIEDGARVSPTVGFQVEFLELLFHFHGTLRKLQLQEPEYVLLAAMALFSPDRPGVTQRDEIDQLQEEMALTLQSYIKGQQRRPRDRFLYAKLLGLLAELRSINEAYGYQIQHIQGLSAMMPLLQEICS
In short: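 In this screen, CAR-driven CYP2B6 promoter activity is measured by luminescence in HepG2-CYP2B6-hCAR cells after 24 h with test compounds and 0.75 uM PK11195 (final concentration).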

[3] = qHTS assay to identify small molecule agonists of the estrogen related receptor signaling pathway with the pleiotropic PPARgamma coactivator (PGC) from Tox21 10K library (AID 1224842); further: nearly all actives have a fitted effect of over 15% in size
In short: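 PGC/ERR reporter cells (NTP line) were seeded 2,000 per well, rested 6 h at 37 C/5% CO2, then pin-dosed with compounds in DMSO for 18 h at 37 C; luciferase read by One-Glo luminescence after 30 min at room temperature.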

[4] = qHTS assay to identify small molecule agonists of the constitutive androstane receptor (CAR) signaling pathway - cell viability counter screen (AID 1224836); further: nearly all actives have a fitted effect of over 45% in size
In short: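 Compound titrations (15 concentrations) went onto HepG2-CYP2B6-hCAR cells 4 h after seeding, alongside PK11195 at a final 0.75 uM; a 23 h, 37 C/5% CO2 incubation preceded CellTiter-Fluor viability measurement.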

[5] = qHTS assay to identify small molecule antagonists of the constitutive androstane receptor (CAR) signaling pathway - cell viability counter screen (AID 1224837); further: nearly all actives have a fitted effect of over 45% in size
In short: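 Using CellTiter-Fluor, viability is scored in HepG2 cells stably carrying hCAR and a 2.2kb CYP2B6 reporter after 23 hr compound exposure across 15 concentrations, with CITCO present at 50 nM.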

[6] = molecular target: Thyrotropin receptor (Homo sapiens) (UniProt P16473); assay: qHTS assay to identify small molecule agonists of the thyroid stimulating hormone receptor (TSHR) signaling pathway (AID 1224843; calls by dose curve; further: nearly all actives have a fitted effect of over 45% in size; on activation: on the % scale 0 is the no-effect control and ±100 the full control effect); details: TSHR-HEK293 cells, cAMP HTRF, agonist mode, 30 min
UniProt P16473, sequence (P16473 whole entry, looked up): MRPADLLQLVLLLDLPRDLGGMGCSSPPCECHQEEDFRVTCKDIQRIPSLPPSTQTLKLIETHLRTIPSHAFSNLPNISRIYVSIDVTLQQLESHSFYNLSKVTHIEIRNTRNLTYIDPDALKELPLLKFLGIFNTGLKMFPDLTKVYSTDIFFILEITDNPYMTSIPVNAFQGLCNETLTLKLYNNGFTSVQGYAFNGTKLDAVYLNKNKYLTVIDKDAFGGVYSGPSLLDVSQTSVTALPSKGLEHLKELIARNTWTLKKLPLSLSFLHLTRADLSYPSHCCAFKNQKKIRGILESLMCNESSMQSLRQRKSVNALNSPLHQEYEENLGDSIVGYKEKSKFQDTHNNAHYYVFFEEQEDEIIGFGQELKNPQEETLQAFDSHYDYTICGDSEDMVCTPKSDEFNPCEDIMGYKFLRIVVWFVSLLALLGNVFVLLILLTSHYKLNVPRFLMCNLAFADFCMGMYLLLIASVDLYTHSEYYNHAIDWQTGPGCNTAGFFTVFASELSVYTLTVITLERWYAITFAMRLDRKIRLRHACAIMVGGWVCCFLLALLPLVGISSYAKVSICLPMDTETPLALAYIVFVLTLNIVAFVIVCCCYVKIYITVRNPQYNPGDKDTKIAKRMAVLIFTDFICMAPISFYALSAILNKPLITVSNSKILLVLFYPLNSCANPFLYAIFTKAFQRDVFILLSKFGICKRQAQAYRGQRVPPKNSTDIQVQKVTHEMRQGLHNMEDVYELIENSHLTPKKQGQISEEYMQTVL
In short: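 Cell line HEK293 with TSHR; density 800/well. Exposure 30 min RT. Readout HTRF cAMP (cAMP-d2/anti-cAMP-cryptate), 1 h RT before reading.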

[7] = qHTS assay to identify small molecule antagonists of the estrogen related receptor signaling pathway with the pleiotropic PPARgamma coactivator (PGC) from Tox21 10K library - cell viability counter screen (AID 1224840; active means well fitted cell-killing curve with a large enough effect in the repeat runs, not every such curve was filed as active; inconclusive means weak or mixed curves, or effect the other way; inactive means no such curve, though single readings can be large or run the other way; further: nearly all actives have a fitted effect of over 40% in size)
In short: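 Here the PGC/ERR cells serve as a cytotoxicity control: they are exposed to compounds for 17.5 hours at 37 C, and live-cell signal is quantified using CellTiter-Fluor fluorescence.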

[8] = molecular target: Nuclear receptor subfamily 1 group I member 3 (Homo sapiens) (UniProt Q14994); assay: qHTS assay to identify small molecule antagonists of the constitutive androstane receptor (CAR) signaling pathway (AID 1224838);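 further: HepG2 cells stably expressing hCAR with CYP2B6 luciferase reporter stimulated by CITCO; nearly all actives have a fitted effect of over 40% in size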
In short: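 Reporter luminescence was quantified after 24 h exposure of hCAR/CYP2B6-2.2kb double-stable HepG2 cells to compounds at 15 concentrations in the presence of 50 nM CITCO final.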

[9] = qHTS assay to identify small molecule agonists of the hypoxia (HIF-1) signaling pathway - cell viability counter screen (AID 1224844; calls by dose curve; further: nearly all actives have a fitted effect of over 50% in size)
In short: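 Multiplexed with the HRE beta-lactamase assay, this viability read used CellTiter-Glo luminescence (30 min, RT) on HRE-bla ME-180 cells treated 17 hrs with compounds in 0.5% dialyzed FBS medium.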

[10] = activation: at 92.4 µM (top of the series) unless noted
Potency means the concentration at half of the fitted maximal effect; tags describe the fitted curve by direction and shape or compound fluorescence and quenching.

CC(C)COC(=O)c1ccc(N)cc1
Potency [1]: inconclusive: 27.5 µM [inhibitor, partial curve]
Potency [2]: inconclusive: 26.6 µM [activator, partial curve]
Potency [3]: inconclusive: 13.3 µM [activator, partial curve]

CNC(C)=O
Potency [4]: inactive
Potency [5]: inactive

C=C(C)C(=O)OCC[N+](C)(C)C
Potency [4]: inactive
Potency [2]: inconclusive: 54.3 µM [activator, partial curve, poor fit]

CCC(=O)OC
Potency [4]: inactive
Potency [6, 10]: inactive

C[C@@H]1C[C@H]2[C@@H]3C[C@H](F)C4=CC(=O)C=C[C@]4(C)[C@@]3(F)[C@@H](O)C[C@]2(C)[C@@]1(O)C(=O)CO
Potency [5]: inactive

O=S(=O)(O)c1cc(S(=O)(=O)O)c2c(N=Nc3ccccc3)c(O)ccc2c1
Potency [1]: inconclusive: 80 µM [inhibitor, partial curve]
Potency [5]: inconclusive: 54.7 µM [cytotoxic, partial curve] and inconclusive: 38.6 µM [cytotoxic, partial curve]
Potency [2]: inactive
Potency [7]: inconclusive: 27.4 µM [cytotoxic, partial curve] and inconclusive: 30.6 µM [cytotoxic, partial curve]

CN1CCCC(CC2c3ccccc3Sc3ccccc32)C1 (stereo unspecified)
Potency [4]: inconclusive: 23.7 µM [cytotoxic]
Potency [8]: inconclusive: 33.5 µM [inhibitor, single point]
Potency [7]: inconclusive: 26.6 µM [cytotoxic, partial curve, poor fit]
Potency [3]: inconclusive: 33.5 µM [activator, single point]
Potency [9]: inconclusive: 23.9 µM [cytotoxic, single point]

CC1(C)C(=O)N(Br)C(=O)N1Br
Potency [1]: inconclusive: 22.4 µM [inhibitor, full curve, poor fit]
Potency [6, 10]: inactive
Potency [9]: inactive

CN(C)CCOC(c1ccccc1)c1ccccc1 (tested in a mixture with another compound)
Potency [4]: inconclusive: 61.6 µM [cytotoxic, partial curve, poor fit]
Potency [5]: inconclusive: 48.9 µM [cytotoxic, partial curve]
Potency [6, 10]: inconclusive: 61.6 µM [inhibitor]
Potency [9]: inconclusive: 55.4 µM [cytotoxic, single point]

O=[N+]([O-])c1ccccc1Nc1ccccc1
Potency [1]: inactive
Potency [2]: inconclusive: 54.2 µM [activator, partial curve]

c1ccc2scnc2c1
Potency [1]: inconclusive: 71 µM [inhibitor, partial curve, poor fit]
Potency [7]: inactive
activation [6, 10]: inconclusive: -24%
activation ([6]; at 92.4 µM (top of the series)): inactive: -0.3%

CN(C)CCCNCCCN(C)C
Potency [1]: inactive
Potency [6, 10]: inactive
Potency [9]: inactive

CC1=C(Br)C(=O)C(Br)=C/C1=C(/c1ccccc1S(=O)(=O)O)c1cc(Br)c(O)c(Br)c1C
Potency [1]: active: 19.2 µM
Potency [6, 10]: inconclusive: 10.4 µM [falling, full curve]
Potency [9]: inconclusive: 26.4 µM [cytotoxic, partial curve]

CCNC(=O)NCc1cccc(Cl)c1
Potency [4]: inactive

C=Cc1ccc(S(=O)(=O)O)cc1
Potency [1]: active: 20 µM
Potency [9]: inconclusive: 61.7 µM [rising, single point]

COc1ccc(OC(F)(F)F)cc1CN[C@H]1CCCN[C@H]1c1ccccc1
Potency [4]: active: 61.1 µM
Potency [5]: active: 54.5 µM
Potency [8]: active: 54.5 µM
Potency [6, 10]: inconclusive: 27.3 µM [inhibitor, partial curve]
Potency [9]: inconclusive: 43.6 µM [cytotoxic, partial curve]

CN(c1nccc(=O)[nH]1)C1CCN(c2nc3ccccc3n2Cc2ccc(F)cc2)CC1
Potency [4]: inactive

[Na+]
Potency [4]: inactive

O=C=NCCCCCCN=C=O
Potency [5]: inconclusive: 47.5 µM [cytotoxic, partial curve]

Cc1ccco1
Potency [4]: inactive

CCCC(CCC)C(=O)O
Potency [4]: inconclusive: 20.4 µM [rising, single point]
Potency [5]: inactive

CCOC(=O)NNc1ccc(N(CC)CC(C)O)nn1 (stereo unspecified)
Potency [4]: inactive
Potency [2]: inactive

CC(C)(C)c1ccc(CCC=O)cc1
Potency [1]: inconclusive: 89.4 µM [inhibitor, single point]
Potency [6, 10]: inconclusive: 77 µM [inhibitor, single point]

C=CN1CCCC1=O
Potency [5]: inactive

Cc1cccc(O)c1N
Potency [4]: inconclusive: 27.6 µM [cytotoxic, partial curve]
Potency [5]: inconclusive: 27.6 µM [cytotoxic, partial curve]
Potency [8]: inconclusive: 7.77 µM [inhibitor, full curve, poor fit]
Potency [9]: inconclusive: 62.3 µM [cytotoxic, single point]
